Consider 87 compounds from PMC4336329 (PLoS ONE, 2015).

Screen size: about 310,000 compounds; about 14,000 (4.5%) showed an effect of 50% or more. The effect is printed as a negative number. The list shows a part of the results. Where a SMILES comes first, the peptide text is derived from it. The star is where a group is joined. PhAc = O=C(Cc1ccccc1)*; OBn = c1ccc(CO*)cc1
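Note: peak tail current of the secondary pulse compared with the same well before compound.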

For this assay, the target named is human ether-à-go-go-related gene (hERG) potassium channel (human, UniProt Q12809). The assay can be described thus: primary screen, population patch clamp on CHO cells stably expressing hERG.
Chain of human ether-à-go-go-related gene (hERG) potassium channel (Q12809 whole entry, looked up): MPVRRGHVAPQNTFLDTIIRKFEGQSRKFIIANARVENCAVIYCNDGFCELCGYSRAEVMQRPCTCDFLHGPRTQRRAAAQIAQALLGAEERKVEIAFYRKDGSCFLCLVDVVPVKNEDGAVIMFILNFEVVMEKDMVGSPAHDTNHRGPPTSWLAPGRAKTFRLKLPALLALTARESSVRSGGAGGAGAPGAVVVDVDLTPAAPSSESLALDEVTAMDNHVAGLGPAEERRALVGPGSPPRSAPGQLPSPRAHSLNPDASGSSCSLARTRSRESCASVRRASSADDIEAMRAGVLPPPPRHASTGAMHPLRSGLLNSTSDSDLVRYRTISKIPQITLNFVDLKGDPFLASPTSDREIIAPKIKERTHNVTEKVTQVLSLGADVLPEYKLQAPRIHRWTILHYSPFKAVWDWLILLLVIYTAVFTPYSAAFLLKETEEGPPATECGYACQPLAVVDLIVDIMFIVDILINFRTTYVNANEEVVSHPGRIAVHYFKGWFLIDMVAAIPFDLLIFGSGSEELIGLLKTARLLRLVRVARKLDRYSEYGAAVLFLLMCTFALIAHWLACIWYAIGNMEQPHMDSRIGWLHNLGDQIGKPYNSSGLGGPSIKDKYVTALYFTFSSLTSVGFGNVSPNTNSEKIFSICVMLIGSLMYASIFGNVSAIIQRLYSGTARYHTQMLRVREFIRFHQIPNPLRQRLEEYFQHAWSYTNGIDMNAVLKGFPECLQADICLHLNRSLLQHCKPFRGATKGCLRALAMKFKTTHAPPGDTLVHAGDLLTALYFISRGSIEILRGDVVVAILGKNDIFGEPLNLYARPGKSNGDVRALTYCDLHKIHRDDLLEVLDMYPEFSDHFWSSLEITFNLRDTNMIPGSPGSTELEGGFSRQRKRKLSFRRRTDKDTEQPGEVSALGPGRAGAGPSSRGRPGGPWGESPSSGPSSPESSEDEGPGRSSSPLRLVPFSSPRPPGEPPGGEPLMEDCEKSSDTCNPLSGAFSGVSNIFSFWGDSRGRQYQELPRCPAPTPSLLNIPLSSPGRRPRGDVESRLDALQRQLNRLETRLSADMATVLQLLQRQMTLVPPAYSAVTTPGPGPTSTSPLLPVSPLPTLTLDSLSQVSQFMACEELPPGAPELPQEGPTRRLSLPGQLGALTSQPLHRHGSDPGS
As for `CCN(CC)CC#CC(O)(c1ccccc1)c1ccccc1`, the “hERG current change (%, negative = inhibition) at 10uM” value is -42.5%.
With `COC(=O)C1=C(C)NC(=O)/C1=C\c1cccs1`, the “hERG current change (%, negative = inhibition) at 10uM” value is recorded as -1.2%.
The result for `COC(=O)C1=CN(c2ccc(OC)cc2)C=C(C(=O)OC)C1c1ccc([N+](=O)[O-])cc1` reads -16.8%.
The result for `CCC(=O)Nc1nc2nc(-c3ccccc3)cc(=O)n2[nH]1` reads 26.5%; that for `Cc1ccccc1Nc1nc(N)nc(CSc2nnc3sc4ccccc4n23)n1`, -5.48%.
The figure for `CC(NC(=O)c1ccco1)C(=O)OCC(=O)c1ccc(Cl)s1` (stereo not drawn) is 24.9%; for `COc1cc(CNCc2ccc(OC)cc2OC)cc(OC)c1.O=C(O)C(=O)O` it is -29.5%.
Turning to `Oc1ccc(N2CCN(Cc3cc4c(cc3Br)OCCO4)CC2)cc1`, the “hERG current change (%, negative = inhibition) at 10uM” value is -23.9%.
The result for `COc1ccccc1OCC(=O)Nc1cc(S(=O)(=O)N2CCCCC2)ccc1N1CCCCC1` reads 2.21%; that for `COc1ccc2c(c1)c(CC(=O)Nc1ccccc1OC)c(C)n2C(=O)c1ccc(Cl)cc1`, 6.99%; that for `C/C(CCc1ccc2c(c1)OCO2)=N\N=C(/N)SC1CC(=O)N(c2ccc(Cl)cc2)C1=O` (stereo not drawn), 9%.
In the case of `COc1ccccc1NC(=O)N1CCCC1C(=O)NCc1ccc(F)cc1` (stereo not drawn), the “hERG current change (%, negative = inhibition) at 10uM” value is recorded as 0.281%.
The figure for `O=C(c1ccc(Cl)c(S(=O)(=O)N2CCOCC2)c1)N1CCCCCC1` is 6.31%; for `COCCCNC(=S)NNC(=S)NCCCOC` it is 6.55%.
The result for `COc1ccc(Cc2c(O)nc(SCC(=O)c3ccc(OC)cc3)[nH]c2=O)cc1` reads 1.35%; that for `CC1Sc2ccc(Cl)cc2-c2nc(N)ncc21` (stereo not drawn), 10.7%.
The result for `Cc1cc(C(=O)N/N=C/c2ccc3c(c2)OCO3)c(C)n1-c1ccc(F)cc1` reads 13.1%.
Regarding `COc1ccc2cc(CN(Cc3ccco3)Cc3nnnn3C3CCCCC3)c(=O)[nH]c2c1`, the “hERG current change (%, negative = inhibition) at 10uM” value was -19.4%.
For the compound `CCCC(C(=O)NCc1ccco1)N(C(=O)CNS(=O)(=O)c1ccc(Cl)cc1)C1CCCC1` (stereo not drawn), the “hERG current change (%, negative = inhibition) at 10uM” value is -27.8%.
The result for `COc1cc(/C=N/NC2=NS(=O)(=O)c3ccccc32)cc(OC)c1OC` reads 8.6%; that for `CC(=O)C1(c2ccccc2)CCNCC1`, 12%.
The figure for `O=C(Cc1ccc(Br)cc1)N1CCCCCC1` is -0.523%.
Consider `CC(C)(C)NC(=O)CSc1nc2ccccc2n1-c1ccccc1`, for which the “hERG current change (%, negative = inhibition) at 10uM” value is given as -11.3%.
The figure for `CCOCCn1c(SC(C)C(C)=O)nc2c1c(=O)[nH]c(=O)n2C` (stereo not drawn) is -42.8%; for `CC1=C(C(=O)Nc2cc(C)ccn2)C(c2ccc(C)cc2)C2=C(CCCC2=O)N1` (stereo not drawn) it is -13.3%.
The result for `CCc1cc2c(NC(Cc3ccccc3)C(=O)O)nc(C)nc2s1` (stereo not drawn) reads 19.8%.
`CCCCn1nc(NC(=O)COC)c2cc3cc(OC)ccc3nc21`: the “hERG current change (%, negative = inhibition) at 10uM” value was -53.2%.
For `COCCN(C)C(=O)CC1C(=O)NCCN1CC(c1ccccc1)c1ccccc1` (stereo not drawn), the “hERG current change (%, negative = inhibition) at 10uM” value is listed as 14.7%.
On to `O=C(N/C(C(=O)N1CCOCC1)=C(\Sc1ncccn1)c1ccccc1)c1ccccc1`, for which the “hERG current change (%, negative = inhibition) at 10uM” value is given as -9.45%.
The result for `CN(C)c1ccc(/C=N/NC(=O)c2cc(-c3ccc4c(c3)OCO4)n[nH]2)cc1` reads 0.899%.
The result for `Cl.O=S(=O)(c1ccc(F)cc1)N1CCCNCC1` reads -1.34%; that for `O=C(Cc1ccc([N+](=O)[O-])cc1)Nc1cc(C(F)(F)F)cc(C(F)(F)F)c1`, 12.2%.
Consider `CCOC(=O)Cc1csc(NC(=O)c2cccc(OC)c2)n1`, for which the “hERG current change (%, negative = inhibition) at 10uM” value is on record as 1.15%.
The result for `Nc1ccc(S(=O)(=O)NC2(C(F)(F)F)NC(=O)N(c3ccc(F)cc3)C2=O)cc1` (stereo not drawn) reads 15.4%.
Consider `O=C(N/N=C/c1ccccc1[N+](=O)[O-])C(=O)N1CCCC1`, for which the “hERG current change (%, negative = inhibition) at 10uM” value was found to be 20.4%.
The result for `Cc1ccc(-n2cc(CN3CCCN(C=O)CC3)c(-c3ccc(F)cc3)n2)cc1` reads -18.7%; that for `N#CCCN1C(=O)C2(OCCO2)c2ccccc21`, 17.9%.
The figure for `O=C(CNS(=O)(=O)c1ccc(Br)cc1)N1CCOCC1` is 10.1%; for `CN(C)CCCOc1ccc(Cl)cc1Br.O=C(O)C(=O)O` it is -69.3%; for `Cc1c(C)c2cc(Cl)c(OCC(=O)NCCCn3ccnc3)cc2oc1=O` it is -2.59%.
The result for `Cc1cccc(N2CCN(c3nc4nonc4nc3N3CCSCC3)CC2)n1` reads 6.12%; that for `O=C1CC(c2ccc(Cl)c([N+](=O)[O-])c2)c2ccc3ccccc3c2N1` (stereo not drawn), -20.7%.
In the case of `Cc1cc(C)nc(NCCCc2ccccc2)n1`, the “hERG current change (%, negative = inhibition) at 10uM” value is given as -10.7%.
The result for `O=C(COC(=O)c1ccc(CO)cc1)Nc1ccc2ccccc2c1` reads 5.23%; that for `CCN(Cc1ccccc1)S(=O)(=O)c1ccc2oc(C(=O)O)c(C)c2c1`, 7.64%.
The figure for `O=C(CNC(=O)Cc1ccccc1)NCC(=O)OCc1ccccc1` (PhAc-Gly-Gly-OBn) is 12.4%; for `CCCOC(=O)c1c(N)sc(C(=O)OCC)c1C` it is 6.34%; for `Cc1ccc2nc(NC(=O)COC(=O)CSc3nc(C)cc(C)n3)sc2c1` it is -9.44%.
Regarding `Cc1ccc(N2CC(=O)Nc3c(oc4nc(-c5ccccc5)cc(C)c34)C2=O)cc1`, the “hERG current change (%, negative = inhibition) at 10uM” value is recorded as 5.08%.
The figure for `O=C(CSC1=NC(=O)C(c2ccccc2)C(=O)N1)Nc1ccccc1[N+](=O)[O-]` (stereo not drawn) is 28.3%; for `CCCc1cc(-c2[nH]ncc2-c2ccc3c(c2)OCCCO3)c(O)cc1O` it is -4.2%; for `COC(=O)c1ccc2c(c1)NC1=C(C(=O)CC(C)(C)C1)C(c1ccncc1)N2` (stereo not drawn) it is -4.48%.
For the compound `Cc1ccc(CSc2nc3ncccc3[nH]2)cc1`, the “hERG current change (%, negative = inhibition) at 10uM” value is recorded as 9.2%.
The figure for `COc1ccc(CCN2C(=O)CC(N3CCN(S(=O)(=O)c4ccccc4)CC3)C2=O)cc1OC` (stereo not drawn) is -5.73%.
For the compound `COCC(=O)NNC(=O)c1ccc(OC)cc1`, the “hERG current change (%, negative = inhibition) at 10uM” value came to 12.7%.
Take `Cc1cc2cc(C)c3nnc(SCc4ccccn4)n3c2cc1C`: the “hERG current change (%, negative = inhibition) at 10uM” value is given as -23.7%.
Take `O=C(Nc1cccnc1)c1cccc(S(=O)(=O)N2CCCC2)c1`: the “hERG current change (%, negative = inhibition) at 10uM” value stood at 8.58%.
The figure for `COc1cccc(OCc2nn3c(=O)c(-c4ccccc4)nnc3s2)c1` is 14%.
With `O=C(NCc1ccccc1)Nc1cccn(Cc2c(F)cccc2Cl)c1=O`, the “hERG current change (%, negative = inhibition) at 10uM” value was 22.5%.
As for `Cc1cc(C)n(-c2nc(Nc3ccccc3C(F)(F)F)nc(-n3nc(C)cc3C)n2)n1`, the “hERG current change (%, negative = inhibition) at 10uM” value is listed as -15.2%.
On to `O=C(COc1ccc(Cl)cc1Br)Nc1nnc(C2CC2)s1`, for which the “hERG current change (%, negative = inhibition) at 10uM” value worked out at 7.31%.
The figure for `CCn1c(SCc2nc3ccccc3[nH]2)nnc1-c1ccc(OC)cc1` is -1.72%; for `Cn1c(-c2csc(-c3cccc(C(F)(F)F)c3)n2)n[nH]c1=S` it is 19%; for `CNc1ccccc1C(C)(C)c1ccn[nH]1` it is 11.7%.
The result for `COC(=O)[C@@H]1[C@H]2C[C@H]3c4[nH]c5ccccc5c4CCN3C[C@@H]2CC[C@@H]1O` reads -57.5%.
The figure for `O=C(Nc1ccc(F)cc1Cl)c1ccc2c(=O)n3c(nc2c1)CCC3` is -19.3%; for `Cc1ccc(C(=O)N(Cc2cccnc2)Cc2cc3cc(C)ccc3n3nnnc23)cc1` it is -23.8%.
`O=C(NCCc1cnccn1)C1CCC(=O)N(Cc2ccc(Cl)cc2)C1` (stereo not drawn): the “hERG current change (%, negative = inhibition) at 10uM” value was found to be 2.46%.
The figure for `CCn1cc(C(=O)Nc2ccccc2C(=O)OC)cn1` is 3.13%.
Regarding `O=[N+]([O-])c1ccc(N/N=C/c2cccc(O)c2O)c(S(=O)(=O)N2CCOCC2)c1`, the “hERG current change (%, negative = inhibition) at 10uM” value was -5.8%.
The result for `Cc1cccc(C)c1NC(=O)C(c1ccc([N+](=O)[O-])cc1)N(C)C(=O)c1ccccn1` (stereo not drawn) reads -27%; that for `CCN(CC)CCN1C(=O)C(=O)/C(=C(/O)c2c(C)[nH]c(C(=O)OC)c2C)C1c1ccccc1` (stereo not drawn), -5.47%; that for `COc1cc(C(=O)OCC(=O)N2CCCCC2C)ccc1OCc1c(C)noc1C` (stereo not drawn), 6.3%.
The result for `CC1Cc2ccccc2N1C(=O)CN1CCc2ccccc2C1` (stereo not drawn) reads -24.6%; that for `COc1cccc(NC(=O)C(Sc2nnc3ccccn23)c2ccccc2)c1` (stereo not drawn), 6.68%.
The figure for `CC1(C)CC(=O)C(C=Nc2ccc3cn[nH]c3c2)=C(O)C1` is -40.5%; for `CCCc1[nH]nc2c1C(c1ccc(OC)cc1OC)C(C#N)=C(N)O2` (stereo not drawn) it is -1.17%; for `Cc1nc(N)sc1Cc1ccc2c(c1)OCO2` it is 7.61%.
For `CCOc1cc(/C=N/O)ccc1OS(=O)(=O)c1ccc(C)cc1`, the “hERG current change (%, negative = inhibition) at 10uM” value was -5.21%.
The result for `CCCCCCCNC(=O)CN1C(=O)CSc2ccc(S(=O)(=O)N3CCOCC3)cc21` reads -17.7%; that for `O=C(CC(=O)Nc1ccccc1)Nc1ccccc1`, 14.8%.
The result for `CCOc1ccc(NS(=O)(=O)c2ccc(C(=O)NCCCN3CCOCC3)cc2)cc1` reads 18.6%; that for `Cc1ccc(Cl)cc1N1CCN(C(=O)Cc2ccc(-n3c(=O)[nH]c4ccsc4c3=O)cc2)CC1`, -4.4%.
On to `C/C(N)=C(/C#N)C(=O)COC(=O)c1cc(-c2cccc3ccccc23)nc2ccccc12`, for which the “hERG current change (%, negative = inhibition) at 10uM” value stood at 3.67%.
The figure for `Cc1ccc(C=Nc2ccccc2C(N)=O)cc1` is 12.1%; for `Cc1cccc(-c2oc3ccc(-c4ccc5c(c4)OCO5)cc3c2C#Cc2cncn2C)c1` it is 20.4%.
The figure for `CCOC(=O)N1CCN(C(=S)NC(=O)c2ccc(Br)cc2)CC1` is -20.7%.
